# Screen size: about 72,000 compounds; about 710 (0.99%) were called active. The inconclusive results got no clear call from the source; some entries with a clear call stand among them for comparison. The call rests on the fitted dose curve; in most records, active means well fitted inhibition curve with a large enough effect; inconclusive means small, poorly fitted or top-dose-only effect; inactive means no such curve, though single readings can be large or run the other way. No potency is given beside an inconclusive call; the fits are too rough.
# Assay: qHTS Assay for Inhibitors of the ERK Signaling Pathway using a Homogeneous Screening Assay; further: nearly all actives have a fitted effect of over 55% in size
# Conditions: HEK293-V1b, vasopressin-stimulated pERK AlphaScreen; activity, negative = inhibition: at 57.5 µM (top of the series) unless noted
# Excerpt: qHTS Assay for Inhibitors of the ERK Signaling Pathway using a Homogeneous Screening Assay; further: nearly all actives have a fitted effect of over 55% in size
# NIH Chemical Genomics Center [NCGC]
# NIH Molecular Libraries Screening Centers Network [MLSCN]
# Assay Submitter (PI): Dr. Wei Zheng, NCGC/NIH
# The Ras/extracellular-signal-regulated kinase (ERK) mitogen activated protein (MAP) kinase signaling pathway (ERK1/2 cascade) plays is a key role in transmitting signals from the cell surface to the nucleus (Nishida and Gotoh 1993; Chang and Karin, 2001). The cascade is initiated by the small G-protein Ras, which recruits Raf […], where activation occurs. Alternatively, this pathway can be activated by elevating intracellular cAMP.
# Activation of the ERK pathway is essential in increased cell division and cell survival. Sustained and constitutive activation of the ERK pathway, however, has been linked to uncontrolled cell proliferation, increased cell survival, and tumor progression. Thus, the ERK has been as an attractive target for cancer chemotherapy in the past few years (Sebolt-Leopold and Herrera, 2004). Given its physiological and pathological importance, assessment of ERK phosphorylation has been broadly performed in both basic research and drug discovery. Most assays for the measurement of ERK phosphorylation use the antibody-based detection methods, such as western blot and ELISA. These assays require multiple reagent additions with cell wash steps and are not suitable for high throughout screening.
# The current cell-based ERK phosphorylation assay was performed using AlphaScreen platform. AlphaScreen is a two bead-based proximity-dependent chemical energy transfer luminescent assay platform. The assay reagents (ERK SureFire(TM) kit) were supplied from TGR BioSciences (Australia). In the presence of specific antibodies, phosphorylated ERK will bring "donor" and "acceptor" beads to a proximity range (<200 nm), and subsequently lead a chemical luminescent reaction upon exciting donor beads with 680 nm laser. To exclude the assay-related false positives, we used a biotinylated rabbit IgG to perform counter-screen. The biotinylated antibody mimics the phosphorylated ERK1/2 for bringing streptavidin coated beads and protein-A coated beads to a proximity range for the AlphaScreen detection.
# NCGC Assay Protocol Summary:
# HEK293 cells stably expressing type-1 vasopressin receptor (V1b) were maintained in DMEM medium (Invitrogen, Carlsbad, CA) at 37C under a humidified atmosphere containing 5% CO2 and 95% air. The medium contained 10% FBS, 2 mM L-glutamine, non-essential amino acid, pyruvate and 50 U/ml penicillin and 50 ug/ml streptomycin (Invitrogen). The aliquots of frozen cells were stored at -135C and used for the compound screening. All compounds were screened as titrations from 0.6 nM to 46 uM final concentration. Vasopressin was used to stimulate the ERK phosphorylation pathway. The ERK phosphorylation in cells was determined using an AlphaScreen assay kit provided by PerkinElmer. Data were normalized to the controls for basal activity (DMSO only) and 100% activation (25 nM vasopressin). AC50 values were determined from concentration-response data modeled with the standard Hill equation.
# (1) Seed 4 ul/well of resuspended frozen HEK293 cells containing 2000 cells in white 1536-well plates for overnight with 1% FBS at 37C under a humidified atmosphere containing 5% CO2 and 95% air.
# (2) Add 23 nL compounds in DMSO solution. The final titration was 0.6 nM to 46 uM.
# (3) Incubate at 37C for 30 min.
# (4) Dispense 0.5uL vasopressin (25 nM in final)
# (5) Incubate at 37C for 5 min.
# (6) Dispense 0.5uL of 1:2 diluted 5x lysis buffer.
# (7) Incubate at 37C for 10 min.
# (8) Dispense 1.5uL of mixture of activation buffer and reaction buffer with AlphaScreen beads (streptavidin donor beads and protein-A acceptor beads, 10 ng/well for each).
# (9) Incubate at room temperature for 5 hr.
# (10) Detect the assay plate in an EnVision plate reader (PerkinElmer) using the AlphaScreen detection mode.
# […]
# On the % scale 0 is the no-effect control and ±100 the full control effect; potency means the concentration at half of the fitted maximal effect; tags describe the fitted curve by direction and shape.
SMILES,"activity, negative = inhibition",Potency
Cc1ccc(O)c(-c2cc3ccccc3[nH]2)c1,inactive: -19.6%,
CC(=O)c1cccc(NC(=O)C2CCCN(S(=O)(=O)c3cccc4cccnc34)C2)c1 (stereo not drawn),,"inconclusive [inhibitor, partial curve]"
Cc1cc(C(=O)CSc2nnc(-c3ccccc3)n2-c2ccccc2)c(C)n1-c1ncn[nH]1,,"inconclusive [inhibitor, single point]"
CCC(=O)Nc1ccc(C(=O)Nc2cccnc2)cc1,,"inconclusive [inhibitor, partial curve, poor fit]"
COc1ccc(Nc2cc(C)nc(N3CCOCC3)n2)cc1,,"inconclusive [inhibitor, full curve]"
COc1ccccc1C(=O)Nc1cccc(N(C)S(C)(=O)=O)c1,,"inconclusive [inhibitor, full curve, poor fit]"
O=C(O)c1cccc([N+](=O)[O-])c1,inactive: 1.53%,
CCC(C)Nc1ccc(NC(C)CC)cc1 (stereo not drawn),inactive: 5.51%,
CCOc1ccc2nc(NC(=O)Cn3cnc4c3c(=O)n(C)c(=O)n4C)sc2c1,inactive: -17.3%,
Cc1cc2nc3c(=O)[nH]c(=O)nc-3n(C[C@H](O)[C@H](O)[C@H](O)CO)c2cc1C,,"inconclusive [inhibitor, partial curve, poor fit]"
FC(F)(F)c1cc(-c2ccco2)nc(NCc2cccnc2)n1,,"inconclusive [inhibitor, full curve, poor fit]"
O=C1c2ccccc2N2C(=O)c3ccccc3C2N1Cc1ccco1 (stereo not drawn),,"inconclusive [inhibitor, single point]"
CC1CCCC(C)N1C(=O)CSc1nnnn1Cc1ccccc1 (stereo not drawn),,"inconclusive [inhibitor, partial curve]"
N#CCCn1c(=O)c(-c2cccc(C#N)c2)nc2cnc(Oc3ccccc3)nc21,,"inconclusive [inhibitor, partial curve]"
Cn1c(=O)c2c(nc(NC3CCCCC3)n2CC(=O)C23CC4CC(CC(C4)C2)C3)n(C)c1=O,inactive: 10.3%,
Cc1cc(NC(=O)c2cnn3cccnc23)n(-c2ccccc2)n1,,"inconclusive [inhibitor, partial curve]"
Cc1ccc(Cn2c(-n3nc(C)cc3C)nc3c2c(=O)[nH]c(=O)n3C)cc1,,"inconclusive [inhibitor, partial curve]"
O=C(NCCCN1CCN(Cc2ccccc2)CC1)C1CCN(c2nnc(-n3cccc3)s2)CC1,,"inconclusive [inhibitor, full curve, poor fit]"
Cc1ccc(NS(=O)(=O)c2ccc(OCC(=O)NCc3ccco3)cc2)cc1,,"inconclusive [inhibitor, partial curve]"
Cc1ccccc1NC(=O)CNc1ccccc1N1CCCCC1,inactive: -6.19%,
NC(=O)C1CCN(c2nc(-c3ccccc3)nc3c2oc2ccccc23)CC1,inactive: -17.1%,
C[C@H](CO)NC(=O)[C@@H]1C[C@H]1[C@@H](NP(=O)(c1ccccc1)c1ccccc1)c1ccccc1,inactive: 3.12%,
COc1ccc(S(=O)(=O)Cc2ccc(C(=O)N3CCN(c4cccc(C)c4C)CC3)o2)cc1,,"inconclusive [inhibitor, single point]"

SMILES,"activity, negative = inhibition",Potency
O=C1NC(=O)c2cc(Nc3ccccc3)c(Nc3ccccc3)cc21,,active: 31.6 µM
Cc1c(-n2cc(C(=O)c3ccccc3O)cc(C#N)c2=O)c(=O)n(-c2ccccc2)n1C,,"inconclusive [inhibitor, single point]"
N#Cc1ccc(CN2CCC3(CC2)CCN(S(=O)(=O)c2ccccc2)CC3)cc1,,"inconclusive [inhibitor, single point]"
COC(=O)n1c(=S)oc2cc(Cl)ccc21,,"inconclusive [inhibitor, single point]"
COc1cc(S(=O)(=O)NC2CCCC2)ccc1Cl,,"inconclusive [inhibitor, partial curve]"
COc1cc2c(cc1OC)/C(=C/C#N)NC(C)(C)C2,,"inconclusive [inhibitor, partial curve]"
CCNc1ncc2ncc(=O)n(Cc3ccc(F)cc3)c2n1,,"inconclusive [inhibitor, partial curve]"
CSC(=N)N,,"inconclusive [inhibitor, single point]"
COc1ccc2cc3cc(C(=O)NCC4CCCO4)oc3nc2c1 (stereo not drawn),inactive: 1.26%,
CCc1ccc(C(=O)NCC2COc3ccccc3O2)o1 (stereo not drawn),,"inconclusive [inhibitor, partial curve]"
Cc1cc(C)n2c(Br)c(CSc3nc4ccccc4o3)nc2n1,,"inconclusive [inhibitor, partial curve]"
CCn1c(SCc2ccc(C#N)cc2)nnc1-c1ccc(S(=O)(=O)N2CCCCC2)cc1,,active: 25.1 µM
Cc1cccc(S(=O)(=O)c2c(N)n(/N=C/c3cccnc3)c3nc4ccccc4nc23)c1,,"inconclusive [inhibitor, full curve, poor fit]"
Cc1cc(S(=O)(=O)N(C)CCc2ccccc2)ccc1-n1cnnn1,,"inconclusive [inhibitor, single point]"
Cc1nc(N2CCOCC2)c2nc(-c3ccccc3)n(CCCN3CCOCC3)c2n1,inactive: -11.3%,
Cc1cnc(CNc2ncncc2-c2cccc(NS(C)(=O)=O)c2)cn1,inactive: -15.2%,
COc1cc(C(=O)N2CCN(c3ncnc4sc(C)c(C)c34)CC2)cc(OC)c1OC,,"inconclusive [inhibitor, partial curve]"
Cc1ccc(-c2csc3nnc(SCC(=O)NCc4ccco4)n23)cc1,,"inconclusive [inhibitor, partial curve, poor fit]"
CN(C)CCC(=O)[C@@]1(O)CC[C@H]2[C@H]3CC=C4C[C@@H](O)CC[C@]4(C)[C@H]3CC[C@]21C,inactive: -13.8% [at 11.5 µM],
CCCCOc1ncnc2c1[nH]c1ccccc12,,"inconclusive [inhibitor, partial curve]"
COc1ccc(-c2cnc(SCC(=O)Nc3cc(C)on3)n2Cc2ccco2)cc1,,"inconclusive [inhibitor, partial curve]"
CCCCCCn1c(-c2ccco2)nc2oc3cc(OC)ccc3c(=O)c2c1=O,inactive: -21.7%,
CCn1c(-c2c[nH]c3ccccc23)n[nH]c1=S,,"inconclusive [inhibitor, partial curve, poor fit]"

SMILES,"activity, negative = inhibition",Potency
Cn1c(NCc2ccco2)nc2ccccc21,,"inconclusive [inhibitor, single point]"
[C-]#[N+]/C(C#N)=C\c1cc(C(C)(C)C)c(O)c(C(C)(C)C)c1,,"inconclusive [inhibitor, single point]"
Cn1cccc1C(=O)N1CCC2(CCN(C(=O)Nc3ccccc3)CC2)CC1,inactive: 15.4%,
CC(=O)NCCNc1cc(-c2ccccc2CN(C)C)ncn1,inactive: 10.8%,
CN(C)S(=O)(=O)c1ccc2c(c1)/C(=C/c1cc3c([nH]1)CCCC3)C(=O)N2,,"inconclusive [inhibitor, partial curve]"
COc1ccc2[nH]cc(CCNc3ccnc(-c4cccc(C#N)c4)n3)c2c1,,"inconclusive [inhibitor, single point]"
Cc1onc(-c2ccccc2Cl)c1C(=O)N1CCN(c2ccccc2)CC1,inactive: -17.6%,
COc1ccc(C(=O)N2c3cc4c(cc3C(C)=CC2(C)C)OCO4)cc1,,"inconclusive [inhibitor, partial curve]"
O=C(Nc1cccnc1)C1CC(c2ccc(Cl)c(Cl)c2)=NO1 (stereo not drawn),,"inconclusive [inhibitor, single point]"
Cc1ccc(Cn2nnc3c(=O)[nH]c(C4CCN(S(=O)(=O)c5ccc(C)cc5)CC4)nc32)cc1,,"inconclusive [inhibitor, partial curve]"
COc1ncc2nc(-c3cn(C)c4ccccc34)c(=O)n(CCc3ccccc3)c2n1,inactive: 6.96%,
COc1ccc(-c2nc3cnc(N4CCN(C)CC4)nc3n(Cc3cccc(OC)c3)c2=O)cc1,,"inconclusive [inhibitor, single point]"
O=C(O)C(F)(F)C(F)(F)C(F)(F)C(F)(F)C(=O)O,inactive: 0.801% [at 11.5 µM],
Cc1ccccc1-n1c(SC/C(O)=C(\C#N)c2nc3ccccc3[nH]2)nnc1-c1ccncc1,inactive: -13.1%,
CC1CN(S(=O)(=O)c2cccc(C(=O)OCc3cc(=O)oc4cc(O)ccc34)c2)CC(C)O1 (stereo not drawn),,"inconclusive [inhibitor, single point]"
CN(C)/C=N/c1sc2c(c1C#N)CCC2,inactive: -9.71%,
Cc1ccc(C2N(c3ccc(F)cc3)C(=O)C3CCCN32)cc1 (stereo not drawn),,"inconclusive [inhibitor, partial curve, poor fit]"
COc1ccc(N2CCN(C(=O)C3CCCN(S(=O)(=O)c4cccc5cccnc45)C3)CC2)cc1 (stereo not drawn),,"inconclusive [inhibitor, single point]"
COc1cc(NC(=O)c2ccccc2Cl)c(OC)cc1NC(=O)CN1CCOCC1,,"inconclusive [inhibitor, single point]"
Cc1ccccc1C(=O)N1CCN(c2ccc(NC(=O)c3ccco3)cc2Cl)CC1,,active: 31.6 µM
COc1ccc(S(=O)(=O)N2CCC(C(=O)Nc3ccccc3C)CC2)c2cccnc12,,"inconclusive [inhibitor, partial curve]"
COc1cc(C2CC(=O)Nc3ccccc3S2)cc(OC)c1OC (stereo not drawn),,"inconclusive [inhibitor, partial curve, poor fit]"

# Reference: PubChem BioAssay AID995 (National Center for Advancing Translational Sciences (NCATS), 2007)
